The supplement of paper PMC10369915
Some of the results follow. Rule as the data show it: active = 3.2 or more and inactive = the rest. Most of these values are background signal.

Molecular target: SHP2 C-SH2 domain E139D
Test: enrichment score (SH2-bound / input frequency) (ratio); bacterial display of known human phosphotyrosine sites (pTyr-Var adds point mutants) read by sequencing; higher = stronger binding; tyrosines were phosphorylated by kinases first
Details: peptide library: pTyr-Var
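Also: displayed peptides selected on beads carrying the immobilized SH2 domain, with library peptides lacking any tyrosine serving as negative controls.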

Enrichment score, inactive:
VQVAFYTMMMN [SPATA17_Y84_YF] 1.73, RPSELYFSKIG [SMG1_Y2253_YF] 1.18, ALIKAYVKAVA [SMN1_Y43_D44V] 0.749, KDHRDYKYQPR [SOX9_Y172_P170R] 1.51, KDPPDYKYQPR [SOX9_Y172_H169P] 0.773, TVQVAYFTVMM [SPATA17_Y83_M86V_YF] 0.916, LTFHMYADPNI [SOS1_Y618_F623I_YF] 1.22, NKEAIYSGYIR [SMCHD1_Y283] 0.823, KDHLDYKYQPR [SOX9_Y172_P170L] 0.976, AVIADYMFWLG [SPATA16_Y290_M286V] 2.99, TVQVAYYTVMM [SPATA17_Y83_M86V] 1.14, ERSMSYSDESR [SMG1_Y143] 0.482, QTLEAYIRWNK [SPAST_Y604] 2.17, WASSSYRETPS [SORBS1_Y79_R74W] 0.688, KDHRDYKFQPR [SOX9_Y172_P170R_YF] 1.37, ADYPDCKYRPR [SOX11_Y116_Y116C] 0.636, DMQTLYVNTAA [SMCHD1_Y403] 0.936, KDHPDYKFPPR [SOX10_Y171_Q174P_YF] 0.859

Molecular target: SHP2 C-SH2 domain wild-type
Test: as above
Details: peptide library: pTyr-Var

Enrichment score, inactive:
VQVAFYTMMMN [SPATA17_Y84_YF] 1.71, RPSELYFSKIG [SMG1_Y2253_YF] 1.02, ALIKAYVKAVA [SMN1_Y43_D44V] 0.736, KDHRDYKYQPR [SOX9_Y172_P170R] 1.47, KDPPDYKYQPR [SOX9_Y172_H169P] 0.848, TVQVAYFTVMM [SPATA17_Y83_M86V_YF] 1, LTFHMYADPNI [SOS1_Y618_F623I_YF] 1.37, NKEAIYSGYIR [SMCHD1_Y283] 0.708, KDHLDYKYQPR [SOX9_Y172_P170L] 0.663, AVIADYMFWLG [SPATA16_Y290_M286V] 2.95, TVQVAYYTVMM [SPATA17_Y83_M86V] 1.41, ERSMSYSDESR [SMG1_Y143] 0.536, QTLEAYIRWNK [SPAST_Y604] 2, WASSSYRETPS [SORBS1_Y79_R74W] 0.582, KDHRDYKFQPR [SOX9_Y172_P170R_YF] 1.21, ADYPDCKYRPR [SOX11_Y116_Y116C] 0.917, DMQTLYVNTAA [SMCHD1_Y403] 0.979, KDHPDYKFPPR [SOX10_Y171_Q174P_YF] 0.69

Molecular target: SHP2 N-SH2 domain L43F
Test: as above
Details: peptide library: pTyr-Var

Enrichment score, inactive:
VQVAFYTMMMN [SPATA17_Y84_YF] 1.71, RPSELYFSKIG [SMG1_Y2253_YF] 0.932, ALIKAYVKAVA [SMN1_Y43_D44V] 0.765, KDHRDYKYQPR [SOX9_Y172_P170R] 1.61, KDPPDYKYQPR [SOX9_Y172_H169P] 0.778, TVQVAYFTVMM [SPATA17_Y83_M86V_YF] 0.926, LTFHMYADPNI [SOS1_Y618_F623I_YF] 1.17, NKEAIYSGYIR [SMCHD1_Y283] 0.684, KDHLDYKYQPR [SOX9_Y172_P170L] 1.33, AVIADYMFWLG [SPATA16_Y290_M286V] 3.06, TVQVAYYTVMM [SPATA17_Y83_M86V] 1.29, ERSMSYSDESR [SMG1_Y143] 0.594, QTLEAYIRWNK [SPAST_Y604] 2.1, WASSSYRETPS [SORBS1_Y79_R74W] 0.643, KDHRDYKFQPR [SOX9_Y172_P170R_YF] 1.05, ADYPDCKYRPR [SOX11_Y116_Y116C] 0.625, DMQTLYVNTAA [SMCHD1_Y403] 0.792, KDHPDYKFPPR [SOX10_Y171_Q174P_YF] 0.583

Molecular target: SHP2 N-SH2 domain T42A
Test: as above
Details: peptide library: pTyr-Var

Enrichment score, inactive:
VQVAFYTMMMN [SPATA17_Y84_YF] 1.39, RPSELYFSKIG [SMG1_Y2253_YF] 0.813, ALIKAYVKAVA [SMN1_Y43_D44V] 0.623, KDHRDYKYQPR [SOX9_Y172_P170R] 1.32, KDPPDYKYQPR [SOX9_Y172_H169P] 0.724, TVQVAYFTVMM [SPATA17_Y83_M86V_YF] 0.864, LTFHMYADPNI [SOS1_Y618_F623I_YF] 1.35, NKEAIYSGYIR [SMCHD1_Y283] 0.593, KDHLDYKYQPR [SOX9_Y172_P170L] 0.696, AVIADYMFWLG [SPATA16_Y290_M286V] 2.54, TVQVAYYTVMM [SPATA17_Y83_M86V] 1.22, ERSMSYSDESR [SMG1_Y143] 0.476, QTLEAYIRWNK [SPAST_Y604] 1.94, WASSSYRETPS [SORBS1_Y79_R74W] 0.521, KDHRDYKFQPR [SOX9_Y172_P170R_YF] 1.09, ADYPDCKYRPR [SOX11_Y116_Y116C] 0.53, DMQTLYVNTAA [SMCHD1_Y403] 1.51, KDHPDYKFPPR [SOX10_Y171_Q174P_YF] 0.541

Molecular target: SHP2 N-SH2 domain T52S
Test: as above
Details: peptide library: pTyr-Var

Enrichment score, inactive:
VQVAFYTMMMN [SPATA17_Y84_YF] 1.42, RPSELYFSKIG [SMG1_Y2253_YF] 1.4, ALIKAYVKAVA [SMN1_Y43_D44V] 0.607, KDHRDYKYQPR [SOX9_Y172_P170R] 1.4, KDPPDYKYQPR [SOX9_Y172_H169P] 1.04, TVQVAYFTVMM [SPATA17_Y83_M86V_YF] 0.974, LTFHMYADPNI [SOS1_Y618_F623I_YF] 1.39, NKEAIYSGYIR [SMCHD1_Y283] 0.822, KDHLDYKYQPR [SOX9_Y172_P170L] 0.769, AVIADYMFWLG [SPATA16_Y290_M286V] 2.76, TVQVAYYTVMM [SPATA17_Y83_M86V] 1.52, ERSMSYSDESR [SMG1_Y143] 0.633, QTLEAYIRWNK [SPAST_Y604] 2.45, WASSSYRETPS [SORBS1_Y79_R74W] 0.539, KDHRDYKFQPR [SOX9_Y172_P170R_YF] 1.19, ADYPDCKYRPR [SOX11_Y116_Y116C] 0.533, DMQTLYVNTAA [SMCHD1_Y403] 0.869, KDHPDYKFPPR [SOX10_Y171_Q174P_YF] 0.627

Molecular target: SHP2 N-SH2 domain wild-type
Test: as above
Details: peptide library: pTyr-Var

Enrichment score, inactive:
VQVAFYTMMMN [SPATA17_Y84_YF] 1.87, RPSELYFSKIG [SMG1_Y2253_YF] 0.955, ALIKAYVKAVA [SMN1_Y43_D44V] 1.01, KDHRDYKYQPR [SOX9_Y172_P170R] 1.5, KDPPDYKYQPR [SOX9_Y172_H169P] 0.917, TVQVAYFTVMM [SPATA17_Y83_M86V_YF] 1.03, LTFHMYADPNI [SOS1_Y618_F623I_YF] 1.41, NKEAIYSGYIR [SMCHD1_Y283] 0.887, KDHLDYKYQPR [SOX9_Y172_P170L] 0.944, AVIADYMFWLG [SPATA16_Y290_M286V] 2.76, TVQVAYYTVMM [SPATA17_Y83_M86V] 1.46, ERSMSYSDESR [SMG1_Y143] 0.651, QTLEAYIRWNK [SPAST_Y604] 1.67, WASSSYRETPS [SORBS1_Y79_R74W] 0.829, KDHRDYKFQPR [SOX9_Y172_P170R_YF] 1.07, ADYPDCKYRPR [SOX11_Y116_Y116C] 1.05, DMQTLYVNTAA [SMCHD1_Y403] 0.844, KDHPDYKFPPR [SOX10_Y171_Q174P_YF] 0.786
